Reference: PubChem BioAssay AID686978 (National Center for Advancing Translational Sciences (NCATS), 2013)
Hit rate of the full screen: of about 420,000 compounds, about 64,000 (15%) were called active. Inconclusive results, whose numbers are uncertain, are shown with a selection of clear calls. Calls follow the shape of the dose curve; as a rule, active = well fitted inhibition curve with a large enough effect; inconclusive = small, poorly fitted or top-dose-only effect; inactive = flat fitted curve, though single readings scatter. Potencies of inconclusive entries are left out as doubtful fits.

Assay: qHTS for Inhibitors of human tyrosyl-DNA phosphodiesterase 1 (TDP1): qHTS in cells in absence of CPT; also: nearly all actives have a fitted effect of over 55% in size
Settings: DT40 Tdp1-/- hTDP1 cells, no CPT, ATP luminescence, 48 h; series mostly up to 46.2 µM
Method in brief: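 Growth of hTDP1-complemented DT40 Tdp1-knockout cells is measured by ATP luminescence after at least 48 hr compound exposure at 37 °C, with DMSO substituting for the 20 nM CPT used in the parallel screen.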
Potency is read from the fitted curve at half-maximal effect; tags tell the direction and shape of the fitted curve.

Structure (SMILES) | Potency
O=C(NNC(=O)c1cc(S(=O)(=O)N2CCCCC2)ccc1Cl)c1ccccc1O | active: 20.6 µM
COC(=O)c1c(NC(=O)CSc2nnc(Cn3nnc4ccccc43)n2C)sc(C)c1C | inconclusive [inhibitor, partial curve, poor fit]
Cc1ccc2onc(CC(=O)N3CCN(c4ccccc4)CC3)c2c1 | inconclusive [inhibitor, single point]
CN(C)S(=O)(=O)c1cccc(NC(=O)Cc2ccc(Cl)cc2)c1 | inconclusive [inhibitor, single point]
O=C(C1CCCN(S(=O)(=O)c2ccc(F)cc2)C1)N1CCCCC1 (centres undefined) | active: 23.1 µM
Cn1ncc([N+](=O)[O-])c1C(=O)NC1CCCCC1 | inactive
O=[N+]([O-])c1ccccc1/C=C/CN1CCSCC1 | inconclusive [inhibitor, single point]
COC(=O)[C@H]1C[C@H](OC(=O)Nc2c(C)noc2C)[C@@]2(O)CN(S(=O)(=O)c3ccc(C)cc3)CC2[C@H]1C(=O)OC (some centres undefined) | inconclusive [inhibitor, single point]
O=C(O)Cc1cn(-c2ccccc2)nc1-c1ccc(Cl)cc1 | inconclusive [inhibitor, single point]
CC(C)C[C@H](NC(=O)N1CCn2c1nc1ccccc12)C(=O)N[C@H](Cc1ccccc1)C(=O)O | inactive
C=CCCCCCCCCC(=O)N1CCN(c2cc3c(cc2F)c(=O)c(C(=O)O)cn3CC)CC1 | inconclusive [inhibitor, single point]
Cc1cc(N/N=C/c2ccc(N(C)C)cc2)c2ccccc2n1 | inconclusive [inhibitor, single point]
O=C(Cn1c(=O)oc2cc(S(=O)(=O)N3CCCCC3)ccc21)NCc1ccc(F)cc1 | active: 5.8 µM
O=C(/C=C/c1cccc2ccccc12)NCCC1=CCCCC1 | inconclusive [inhibitor, single point]
COCCNC(=O)CCc1c(C)nc2c(c(C)nn2-c2ccc(C)c(C)c2)c1C | active: 16.4 µM
CCCCn1c(N)c(N(CCOC)C(=O)c2cc3c(s2)CCC(C)C3)c(=O)[nH]c1=O (centres undefined) | inactive
COc1ccc(NC(=O)Nc2nnc(-c3ccccc3F)s2)cc1 | inconclusive [inhibitor, single point]
O=c1oc2ccccc2c(=O)c2ccccc12 | inactive
CC(C)(C)NC(=O)CSc1ncnc2c1nnn2Cc1ccccc1Cl | inconclusive [inhibitor, single point]
